To fix the notation:
B1: OR4K15 (parent)
chain: GUUAACGGUCAUAGGCCAUGGAAACUAGGAGCACCAUUUCGCUGCCAGUGAAGAAAUGAACAAAGAAAAUCUGGGCCAGGCAGGCAUCAAAAGAAAUAGUCUUGCGCUCAACCAGAAAGUCUGUAAUCAUUUUAAGGGUA

Read counts are not given, so values of variants with three or more changes are uncertain.

This data set covers variants of B1. The data set is described as follows: self-cleavage, relative activity (ratio to wild type); higher = more cleavage; in vitro, sequencing; the parent is a self-cleaving ribozyme.
On to GUUAACGGUCAUAGGCCAUGGGAACUAGGAGCACCAUUUCGCUGCCAGUGAAGGAAUGAACAAAGAAAAUCUGGGCCAGGCAGGCAUCAAAAGAAAUAGUCUUGCGCUCAACCAGAAAGUCUGUAGUCAUUUUAAGGGUA, for which the self-cleavage was 0.3.
In the case of GUUAACGGUCAUAGGCCAUGGGAACUAGGAGCACCAUUUCGCUGCCAGUGAAGAAGUGAACAAAGAAAAUCUGGGCCUGGCAGGCAUCAAAAGAAAUAGUCUUGCGCUCAACCAGAAAGUCUGUAAUCACUUUAAGGGUA it was 0.18; in that of GUUAACGGUCAUAGGCCAUGGGAACUAGGAGCACCAUUUCGCUGCCAGUGAAGAAGUGAACAAAGAAAAUCUGGGCCAGGCGGGCAUCAAAAGAAAUAGUCUUGCGCUCAACCGGAAAGUCUGUAAUCAUUUUAAGGGUA, 0.03; in that of GUUAACGGUCAUAGGCCAUGGGAACUAGGAGCACCAUUUCGCUGCCAGUGUAGAAAUGAACAAAGAAAAUCUGGGCCAGGCAGGCAUCAAAAGAAAUAGUCUUGCGCUCAACCAGUAAGUCUGUAAUCAUUUUAAGGGUA, 0.7.
GUUAACGGUCAUAGGCCAUGGGAACUAGGAGCACCAUUUCGCUGCCAGUGAGGAAAUGAACAAAGAAAAUCUGGGCCAGGCAGGCAUCAAAAGAAAUUGUCUUGCGCUCAACCAGAAAGUCCGUAAUCAUUUUAAGGGUG: the self-cleavage was found to be 1.89.
In the case of GUUAACGGUCAUAGGCCAUGGGAACUAGGAGCACCAUUUCGCUGCCAGUGAAGAAAUGGACAAAGAAGAUCCGGGCCAGGCAGGCAUCAAAAGAAAUAGUCCUGCGCUCAACCAGAAAGUCUGUAUUCAUUUUAAGGGUA it was 0.48; in that of GUUAACGGUCAUAGGCCAUGGGAACUAGGAGCACCAUUUCGCUGCCAGUGAAGAAAUGAACGAAGAAGAUCUGGGCCAGGCAGGCAUCAAAGGAAAUAGUCUUGCGCUCAACCAGAAAGUCUGCAAUCAUUUUAAGGGUA, 0.87.
In the case of GUUAACGGUCAUAGGCCAUGGGAACUAGGAGCACCAUUUCGCUGCCAGUGAGGAAAUGAACAAAGAAAAUCUGGGCCAGGCAGGCAUCAAAAGAAGUAGUCUUGCGCUCAACCAGAAAGUCUGUAAUCAUUUUAAGGGUA it was 0.99.
Take GUUAACGGUCAUAGGCCAUGGGAACUAGGAGCACCAUUUCGCUGCCAGUGAAGAAAUGGACAAAGAAAAUCUGGGCCAGGCAGGCACCAAAAGAAAUAGUCUCGCGCUCAACCAGAAAGUCUGUAAUCAUUUUAAGGGUA: the self-cleavage turned out to be 0.6.
In the case of GUUAACGGUCAUAGGCCAUGGGAACUAGGAGCACCAUUUCGCUGCCAGUGAGGAAAUGAACAAAGAUAAUCUGGGCCAGGCAGGCAUCAAAAGAAAUAGUCUUGCGCCCAACCAGAAAGUCUGUAAUCAUUUUAAGGGUA, the self-cleavage came out at 0.04.
To GUUAACGGUCAUAGGCCAUGGGAACUAGGAGCACCAUUUCGCUGCCAGUGAAGGAAUGAACAAAGAAAACCUGGGCCAGGCAGGCCUCAAAAGAAAUAGUCUUGCGCUCAACCAGAAAGUCUGUAAUCAUUUUAAGGGUG belongs 0.06; to GUUAACGGUCAUAGGCCAUGGGAACUAGGAGCACCAUUUCGCUGCCAGUGGAGAAAUGAACGAAGAAAAUCUGGGCCAGGCAGGCAUCUAAAGAAAUAGUCUUGCGCUCAACCAGAAAGUCUGUAAUCAUUUUGAGGGUA, 0.52; to GUUAACGGUCAUAGGCCAUGGGAACUAGGAGCACCAUUUCGCUGCCAGUGUAGAAAUGAACAAAGAAAAUCUGGGCCAGGCAGGCAUCGAAAGAAAUAGUCUUGCGCUCAACCAGAAAGUCUGUAAUCAUUUUAAGGGUA, 0.52.
To GUUAACGGUCAUAGGCCAUGGGAACUAGGAGCACCAUUUCGCUGCCAGUGGAGAAAUGAACGAAGAGAAUCUGGGCCAGGCAGGCAUCAAAAGGAAUAGUCUUGCGCUCAACCAGAAAGUCUGUAAUCAUUUUAAGGGUA belongs 1.03; to GUUAACGGUCAUAGGCCAUGGGAACUAGGAGCACCAUUUCGCUGCCAGUGAAGAGGCGAACAAAGAAAAUCUGGGCCAGGCAGGCAUCAAAAGAAGUAGUCUUGCGCUCAACCAGAAAGUCCGUAAUCAUUUUAAGGGUA, 0.7.
To GUUAACGGUCAUAGGCCAUGGGAACUAGGAGCACCAUUUCGCUGCCAGUGAAGAAGUGAACAAAGAAAAUCCGGGCCAGGCAGGCUUCAAAAGAAAUAGUCUUGCGCUCAACCAGAAAGUUUGUAAUCAUUUUAAGGGUA belongs 0.68.
With GUUAACGGUCAUAGGCCAUGGGAACUAGGAGCACCAUUUCGCUGCCAGUGAAGAAAUGAUCAAAGAAAAUCUGGGCCAGGCAGGCAUCAAAGGAAAUAGUCUUGCGCUCAACCAGAAAGUCUGUAAUCAUUUUGAGGGUA, the self-cleavage stood at 1.82.
For GUUAACGGUCAUAGGCCAUGGGAACUAGGAGCACCAUUUCGCUGCCAGUGGAGAAAUGAACAAAGAAAAUCUGGGCCAGGCAGGCAUCAAAGGAAAUAGUCUUGCGCUCAACCAGUAAGUCUGUAAUCAUUUUAAGGGUA, the self-cleavage stood at 0.2.
Take GUUAACGGUCAUAGGCCAUGGGAACUAGGAGCACCAUUUCGCUGCCAGUGAAGAAGUGAGCAAAGAAAAUCUGGGCCAGGCAGGCAUCAGAAGAAAUAGUCUUGCGCUCAACCAUAAAGCCUGUAAUCAUUUUAAGGGUA: the self-cleavage came to 0.01.
For GUUAACGGUCAUAGGCCAUGGGAACUAGGAGCACCAUUUCGCUGCCAGUGAGGAAAUGAACAAAGUAAAUCUGGGCCAGGCAGGCAUCAAAAGAAACAGUCUUGCGCUCAACCAGAAAGUCUGUAAUCAUUUUGAGGGUA, the self-cleavage was found to be 0.58.
To GUUAACGGUCAUAGGCCAUGGGAACUAGGAGCACCAUUUCGCUGCCUGUGAAGAAAUGAACAAAGAAAAUCUGGGCCAGGCAGGCAUCAAAAGAAAUAGUCUUGCGCUCAACCAGAAAGUCUGUAAUCACUUUAAGGGUA belongs 0.73.

For the origin of these results see the RNAGym collection of RNA variant scans (doi:10.7554/elife.90254).
